# Laboratory results as given in the supplement of paper PMC12217912.
# The list shows a part of the results. Sequences were assembled here from the parent chain. Inactive controls read about 0.05.
# B1: TEV protease; numbered along this chain (parent)
# chain: MGESLFKGPRDYNPISSSICHLTNESDGHTTSLYGIGFGPFIITNKHLFRRNNGTLVVQSLHGVFKVKDTTTLQQHLVDGRDMIIIRMPKDFPPFPQKLKFREPQREERICLVTTNFQTKSMSSMVSDTSCTFPSGDGIFWKHWIQTKDGQCGSPLVSTRDGFIVGIHSASNFTNTNNYFTSVPKNFMELLTNQEAQQWVSGWRLNADSVLWGGHKVFMVKPEEPFQPVKEATQL
# Variants of: B1
# Experiment: raw area under fraction-flipped curve 0-4 h after induction (AUC4h, not background-subtracted), DNA-recorder readout of cleavage of the substrate (dimensionless); higher = more cleavage of the substrate by the protease variant
# Details: temperature: 34 °C; time window: 0-4 h after rhamnose induction
# Description: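 In vivo DNA recorder in E. coli TOP10(DE3) ΔrhaA at 34 °C. Each TEVp single-site mutant (parent TEVp 0) is paired with a single-site variant of the 7-mer TEVs (canonical ENLYFQ|S). The substrate sits between flexible linkers in a Bxb1-sfGFP-TEVs-SsrA fusion, so cleavage stabilises Bxb1 and speeds flipping of a recombination array, read by NGS. The value is the raw area under the fraction-flipped curve over 0-4 h after rhamnose induction (AUC4h), with ≥20 reads per time point. It is not background-subtracted; inactive controls average about 0.047.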
# 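Note: Bxb1 expression induced with 0.2% (w/v) L-rhamnose at OD600 near 0.5, cultures sampled hourly, flipped fraction per protease–substrate barcode pair counted by paired-end Illumina sequencing.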
Variant,area with substrate ENLAFQS,area with substrate ENLCFQS,area with substrate ENLHFQS,area with substrate ENLLFQS,area with substrate ENLPFQS,area with substrate ENLQFQS,area with substrate ENLRFQS,area with substrate ENLSFQS,area with substrate ENLVFQS,area with substrate ENLDFQS,area with substrate ENLFFQS,area with substrate ENLKFQS,area with substrate ENLNFQS,area with substrate ENLWFQS,area with substrate ENLEFQS,area with substrate ENLGFQS,area with substrate ENLIFQS,area with substrate ENLMFQS,area with substrate ENLTFQS
N193I,0.09,0.0487,0.077,0.0708,0.0598,0.0806,0.0578,0.057,0.0829,–,–,–,–,–,–,–,–,–,–
S124E,0.0648,–,0.0776,–,0.0858,–,–,0.0606,–,0.0649,0.0696,0.0896,0.0762,0.0656,–,–,–,–,–
S124M,0.0556,0.0652,0.0563,–,–,–,–,0.0628,0.0939,0.0632,0.0912,0.0629,0.0829,0.0668,0.0613,–,–,–,–
S124Q,0.0795,–,0.0709,0.0784,0.0501,–,0.0694,0.0621,–,0.0637,0.0765,0.0845,0.067,0.0778,0.0671,0.0638,0.0773,0.0662,–
I139Y,0.0639,–,0.0619,–,0.0582,0.0754,0.046,0.0732,–,–,–,–,0.0573,0.0537,–,–,0.0605,–,–
I139M,0.0658,–,0.0736,0.0752,0.0551,0.0621,0.072,0.0637,–,0.0642,0.0851,0.0695,0.071,0.0617,0.0728,–,0.0769,0.0698,–
W141G,0.0554,–,0.0554,–,0.0311,0.0553,0.0574,0.0356,0.0939,0.059,0.0734,0.0513,0.0432,–,0.0556,–,–,0.0461,–
L156V,0.0655,0.063,0.0621,–,0.0426,–,0.0641,0.0516,–,0.0713,0.0462,0.0791,0.073,0.0812,0.0612,0.0594,0.0868,–,–
L156M,0.0591,–,0.0906,–,0.0795,0.0763,0.0689,0.0766,–,0.0563,0.0804,0.0856,0.0641,–,0.0642,–,0.0554,0.0726,–
L156D,0.0439,0.0571,–,0.0497,0.0681,–,0.058,–,0.044,0.0626,0.0722,0.0589,0.0576,0.0645,0.0658,–,0.0566,0.0662,–
L156I,0.0539,0.0687,–,0.0465,0.051,0.0621,–,–,–,–,0.0913,0.0574,0.0676,0.058,0.0385,–,–,0.0691,–
I164P,0.0656,0.0586,0.0592,0.0474,0.052,0.0475,0.0582,0.048,0.0438,0.0523,0.0537,0.0633,0.0343,0.0605,0.0641,–,0.0714,–,–
I164W,0.0324,0.0487,0.0741,–,0.0541,–,–,–,–,–,0.0488,0.0678,0.061,0.0685,0.058,–,0.0594,–,–
E195F,0.0625,–,–,0.062,0.04,0.0822,–,0.0651,0.0798,0.0588,0.104,0.062,–,0.0558,0.0488,0.0471,–,–,0.0644
K142M,0.0897,0.0814,0.079,0.076,0.0694,0.0601,0.0731,0.0706,–,0.0622,0.083,0.0789,0.0625,0.0713,0.0663,–,0.0942,–,–
K142H,0.0789,–,0.0785,0.0775,0.0634,0.0767,0.069,0.0574,0.0988,0.0617,0.0912,0.0776,0.0626,0.0681,0.0718,0.067,0.0823,0.0731,0.0678
T181A,0.0682,0.0759,0.0846,–,–,–,0.047,0.0931,–,0.0643,–,–,0.0791,–,–,–,0.0734,–,0.0689
K185E,0.0579,0.0527,0.0487,0.0606,–,0.06,0.0853,0.0641,0.0917,0.0514,0.0989,–,0.0486,0.0742,0.079,0.0722,0.0788,–,0.0753
K185F,0.0709,–,0.0654,0.0776,0.0681,0.0615,–,0.0485,–,0.0658,0.0764,0.0706,0.0811,0.0685,0.0643,–,0.084,0.161,–
K185I,0.0634,0.0724,0.0551,0.0496,0.0597,–,–,0.0675,0.0846,0.0589,0.0932,0.0772,0.0732,0.096,0.065,–,0.0786,0.111,–
Q194P,0.0737,–,0.0587,–,0.073,0.0735,–,0.0683,–,0.0554,0.0822,0.0814,0.0639,–,0.0575,0.0846,–,–,0.0863
S154P,0.0803,–,–,–,–,–,–,0.0516,–,–,0.0845,0.0618,–,–,0.0672,–,–,–,–
N175Y,0.0802,–,–,0.0805,0.0579,0.0544,–,0.0664,–,0.0696,0.081,0.0678,0.0683,0.0531,–,–,–,–,0.0642
N175D,0.0568,0.0566,0.0242,–,0.0588,0.0628,0.0629,0.0538,–,0.0609,0.0705,0.0729,0.0779,0.0656,–,0.0743,0.0621,–,–
F187H,0.0665,0.0626,0.0597,0.0567,0.0602,0.0688,–,0.0536,0.063,0.0591,–,0.0657,0.07,0.0691,0.0581,–,–,–,–
F187N,0.0572,0.0475,0.0501,–,0.058,0.0516,0.0498,0.0441,–,0.0545,0.0874,0.0509,0.0491,0.0861,–,0.0551,0.0528,–,–
I145Y,0.058,0.0636,–,–,0.0619,0.0522,0.0597,0.0706,–,–,0.0624,0.0729,0.059,–,0.0656,–,0.0554,0.0618,–
